Test results taken from the supplement of paper PMC10126150.
Sequences with one replicate were seen in a single cluster, so their values are uncertain.

Tested on: ATP
Assay: switch fluorescence ratio, 500 uM ATP over buffer (Cy3 cluster intensity, sum of 5 cycles each) (fold (ratio)); higher = stronger signal-on switching upon ATP binding; sequences stand for … in TCGTCGGCAGCGTCAGATGTGTATAAGAGACAGTTTTTTTTTTTTTTTTTTTTTTTTT…TC
Conditions: aptamer strand: ATP DNA aptamer (quencher-CACCTGGGGGAGTATTGCGGAGGAAGG + anchor), 100 nM annealed; ATP concentration: 500 uM; one replicate
In short: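 Between each of five buffer/ATP cycles, the flow-cell was stripped with NaOH and re-annealed. Each cycle imaged Cy3-labelled switching-strand clusters, annealed to 100 nM quencher-labelled ATP aptamer on a modified Illumina MiSeq flow-cell, first in selection buffer and then after 15 min with 500 uM ATP at 22 °C. The fluorescence ratio is summed target-cycle over summed buffer-cycle Cy3 intensity per cluster, averaged per switch-domain sequence, with clusters outside 100-1000 RFU excluded.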
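Note: ATP exposure 15 min at 22 °C before imaging.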

Sequence	switch fluorescence ratio
CCTGGTTGTA	0.963
CGGAATCAGC	1.08
CGACTTAGCT	1.03
GTCCTTACG	1.05
TCGCCGCTGG	1.13
ACAAATTTCG	1.03
TTTTTACTCT	0.964
CTTCATAGTC	1.04
CCGTTTTATT	1.04
AAGAACTTCT	1.01
TTATTTCCAA	1
AAAGATCGTA	1.03
AGTATTTACC	1.05
CGGTTTTCT	1
CCCTCTTGTT	1
TTTCCATCCG	1.31
AAATTCGAGT	1.05
ATTTTCTAGT	1.02
AGTCTCTTTA	1.02
TGGTTGTTCG	0.982
CTTTGAAGTA	0.967
AAGCTTCGCT	1.01
GATGACTGCA	1.04

Sequence	switch fluorescence ratio
TAGCTGTCGC	1.03
ATTCTTGATG	1.02
TTGTGTCGGC	1.04
ACTCAGGC	1.08
AGCGCCCAGG	1.07
CACACTAAGA	1.01
GAGGG	1.04
CAAGCCTGC	1.05
GAAGATGAGT	1.02
TCCCCTTCCA	1.05
TGAAAGTCTT	1.08
TTGTAAAGA	0.948
TGGTGAGTT	1
ACGACAAAT	1.19
TAAATCCACG	1.1
AGCAATGACT	4.62
AGTACACCAC	1.39
AGCCTCCTAA	1.14
AGCCGTAGTA	0.992
TTGTCTTGGT	1.04
TCATGGGCAT	1.05
AGGGTCCTGT	0.993
TGCAGCGTAA	0.991

Sequence	switch fluorescence ratio
CTAATTGGAG	0.991
AGTCGGTTCC	1.04
CGATCCTCAG	1.03
TGGGCATTAG	1.05
TGGAAAAACC	1.06
CAAGGAGAGT	0.987
CCTTTCAGTG	1.04
TACGCCAATG	1.18
TTAGCGCATT	1.11
TTAGCACCGA	1.1
GATAGAATGG	0.948
CTATATAACA	1.02
ACCACCGTGT	1.04
AAATGAAACG	1.02
TGCAACTGG	1.09
TGCCCCCACG	0.998
GTCGGGAGAG	1.01
GCATATACGC	1.96
AAATCACGAG	1.04
ATAGCCTTCA	1.72
TGGGAGGTGC	1.05
TTTCGAAGTA	0.977
ACACGGCGTG	0.996

Sequence	switch fluorescence ratio
TATCAGTTGA	1
CCTGCTGTA	1.01
GGAACGCAGC	1.13
CCGCGGCATG	2.64
CCTCTTCAGA	1.19
ATTCGGACAC	1.07
TGCTCTGGAT	1.05
CAGGAATACG	2.54
TATTAAAAGG	1.01
GACGGATTGC	1.16
TCGTCCCCTT	1.08
CACTGGCGAA	1.03
AGTTAATTT	1.02
TCGTTCACTT	1.01
AAAGTACAAG	1.18
GATTGATCGT	1.04
ATATCATTGT	0.961
ATCAATATTC	1.04
CTATTCGGCA	1.03
GTGGGGGCCG	1.09
AAGTGAGTGT	0.99
CCAGGGAACG	1.04
TGCAAAGTCA	1.04

Sequence	switch fluorescence ratio
TATTCCCGTG	1.03
TATTCGTTGT	1.04
AATATGCATT	1.01
ATTTACGGGC	1.1
AGTGCATATA	1.01
GCTTCCTACT	1.34
AGAAGATTTG	1
TACTCATC	1.08
ATCAGCGCGT	0.985
CAGAGGTGCT	1.06
CTTTTGGCGT	1.02
CAAATTATTT	1.02
CCCATCTTAT	1.01
TTATGAGGCC	0.973
CACTTTATTA	1.05
ACTCCCGTAT	1.28
TAGGCTGTAT	1.03
AATATTTCG	0.98
ACTTCAGTTT	0.991
CGGGACGCTA	1.12
GCCCATAGAG	0.991
AACGTGTAT	0.981
CTACCTCTGC	2.42

Sequence	switch fluorescence ratio
TTTACGATTT	0.997
AAGCACAGTT	1.16
GCGACTAAGA	0.972
TTAGCTGGGA	0.993
CCGGCATGGT	1.09
TTATACCGGC	1.02
GGGGCACGAG	1
TGTGGAAACC	1.07
CTACATAACT	1.19
TCGTTTTCGC	1.1
GCATTGGCTA	1.04
AGCGTTGCCA	1.01
CGACCCTCCT	1.07
AATGAGGCAG	0.991
GGACTTGAAT	1.03
TAAAAGCCCG	1.03
GTATGTATG	1.02
CTGAGTTGTC	1.06
TGGAGTACAG	1
TTCTATCCGG	0.959
GGTAAAAGCA	0.995
AGCGCGAGA	1.07
TGATGCCCTT	1

Sequence	switch fluorescence ratio
TAAGTTACGA	1.11
CGACCGCGGA	1.18
CCCGCGAAAT	2.05
CACTGGCAGG	0.974
AATAATGTAG	0.984
CTGAAATACT	4.34
CATTCGATTA	1.05
GGCCCGGTT	1.01
CACTAGTCGT	0.997
GCGCTTGAAA	1.01
CAAACGTTTC	1.03
AAGGTATTGG	1.04
ATAGCGCCTG	1.07
GCATATGGGG	1.03
GTGGTTATG	0.989
ACGCGCGAGT	1.06
GCGTCGTAAG	1
ACACCTTCCG	2.59
AGGTTCTTAG	0.984
AAGCCAAAAA	1.02
